This is an account of results in PubChem BioAssay AID1346428 (National Center for Advancing Translational Sciences (NCATS), 2018).

Values joined by “and” are separate entries in the source; they are usually repeats but may differ in a detail not shown here. Equal entries are not always repeated. Screen size: about 48,000 compounds; about 1,200 (2.5%) were called active. Not shown: some 2% with an inconclusive outcome.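 The calls were made as follows: active = activation of at least 60% and not above a set upper limit (about 1 call in 100 departs from these limits); inconclusive = activation of 40% to 60%, or above that upper limit; inactive = activation under 40%.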 This is one part of the list.

Sequence of UniProt O75388 (O75388 whole entry, looked up, the tested form may be a part): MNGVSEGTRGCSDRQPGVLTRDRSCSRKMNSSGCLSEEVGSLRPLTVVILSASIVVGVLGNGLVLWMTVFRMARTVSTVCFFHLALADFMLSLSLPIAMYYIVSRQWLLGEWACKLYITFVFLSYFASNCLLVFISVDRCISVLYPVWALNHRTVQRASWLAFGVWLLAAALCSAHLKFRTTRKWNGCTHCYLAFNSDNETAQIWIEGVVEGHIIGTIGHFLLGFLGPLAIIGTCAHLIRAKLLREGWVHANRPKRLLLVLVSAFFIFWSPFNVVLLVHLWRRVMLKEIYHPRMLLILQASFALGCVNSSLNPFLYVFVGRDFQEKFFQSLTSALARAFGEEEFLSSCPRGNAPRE

The target in the test is Probable G-protein coupled receptor 32 (Homo sapiens) (UniProt O75388). Briefly: qHTS for Agonists of Human Resolvin D1 Receptor DRV1. As to conditions: CHO-K1 GPR32 beta-arrestin PathHunter luminescence, 90 min; at 76.9 µM; active compounds read high; zero percent set by DMSO-only wells. The essentials:
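PathHunter enzyme-fragment complementation, CHO-K1 GPR32 stable line; 2,500 cells/well, overnight attach; cpd 90 min 37 °C 5% CO2; detection reagent 1 h RT; chemiluminescence. DMSO = EC0.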
As to `CCOc1ccc(N2C(=O)c3n[nH]c(-c4cccs4)c3C2c2cccc(F)c2)cc1` (stereo not given), the activation was inactive: 41.6%.

As for `CCc1nonc1NC(=O)c1oc2ccc(C)cc2c1C`, the activation is inactive: 2.59%.

Regarding `CN(C)c1ccc(-c2nc(-c3ccco3)no2)cc1[N+](=O)[O-]`, the activation was inactive: -26.5%.

In the case of `CCc1ccc(NC(=O)c2ccc(F)c(S(=O)(=O)NCc3ccc(Cl)c(Cl)c3)c2)cc1`, the activation was inactive: 20.4%.

On to `Cc1ccc(Cl)cc1-n1ncc2c(NCCCc3ccccc3)ncnc21`, for which the activation was active: 78.4%.

Consider `Cc1c(Nc2nc3ccccc3n3c(C)nnc23)cccc1C(=O)O`, for which the activation is inactive: -3.76%.

Consider `CCOc1ccccc1CNC(=O)c1ccc2c(c1)nc1n2CCCCC1`, for which the activation was inactive: -9.67%.

As for `CCN(CC)S(=O)(=O)c1ccc2c(c1)N(CC(=O)N1CCN(c3cccc(OC)c3)CC1)C(=O)CO2`, the activation is inactive: -19.6%.

Consider `Fc1ccc(-n2ncc3c(N4CCCCCC4)ncnc32)cc1`, for which the activation is inactive: 23.5%.

In the case of `Cc1ccc(NC(=O)N2CC3CCCN3c3ccccc32)c(C)c1` (stereo not given), the activation is inactive: 6.47%.

As to `COc1ccc(NC(=O)c2ccco2)cc1NC(=O)COc1ccc(Cl)c(C)c1`, the activation is inactive: 34.6%.

With `Cc1ccc(-c2cc(C(=O)N(Cc3ccc(C(C)(C)C)cc3)Cc3ccco3)no2)cc1`, the activation is inactive: -9.69%.

On to `CCc1cccc(C)c1NC(=O)CCn1c(=O)c2cccn2c2ccccc21`, for which the activation is inactive: -17.5%.

With `CC(C)C(=O)NCC1(N(C)C)CCCCC1`, the activation was inactive: 5.55%.

As for `Cc1cc(N2CCN(c3cccc(C(F)(F)F)c3)CC2)n2nc(-c3ccccc3)nc2n1`, the activation is inactive: -14.2%.

In the case of `CCOc1ccc(C(=O)Nc2c(C(=O)N3CCN(c4ccccc4F)CC3)oc3ccccc23)cc1`, the activation is inactive: 6.06%.

Consider `Cc1ccc(NS(=O)(=O)c2cc3[nH]c(=O)c(=O)[nH]c3cc2C)cc1Cl`, for which the activation is inactive: -7.63%.

Consider `CCCn1c(=N)n(CC(O)COc2ccccc2OC)c2ccccc21` (stereo not given), for which the activation was inactive: -5.52%.

As for `Cc1ccc(N2CC(NC(=O)CCc3ccccc3)CC2=O)cc1C` (stereo not given), the activation was inactive: -11.1%.

Take `Cc1cccc(CCNC(=O)c2ccc(CSCc3cccc(Cl)c3)o2)c1`: the activation is inactive: -25.2%.

Turning to `Cc1cccc(N(Cc2cc3ccccc3[nH]c2=O)C(=O)c2cccc(Cl)c2)c1`, the activation was inactive: -21.7%.

As to `Cc1ccc(S(=O)(=O)c2[nH]c(-c3ccccc3)nc2SCCC(=O)O)cc1`, the activation is inactive: 15.8%.

Regarding `CCOc1ccc(NC(=O)c2c(Nc3ccccc3C)sc(C(=O)c3ccc(Cl)cc3)c2N)cc1`, the activation is inactive: -80.4%.

`Cc1nn(CC(=O)N2CCN(c3cccc(C(F)(F)F)c3)CC2)c(=O)c2cc3sccc3n12`: the activation was inactive: 11.7%.

As for `CCCN1CCN(c2cc3c(cc2F)c(=O)c(S(=O)(=O)c2ccc(CC)cc2)cn3CC)CC1`, the activation is inactive: -13.8%.

As for `CCn1ccc2c(OCC(=O)NCc3ccccc3)cccc2c1=O`, the activation was inactive: 21.8%.

Regarding `NC(=O)c1ccc(NC(=O)C2CCN(S(=O)(=O)Cc3ccccc3)CC2)cc1`, the activation is inactive: -7.74%.

As for `CCOc1ccc(NC(=O)CC(C)O)cc1` (stereo not given), the activation was inactive: 0.538%.

`COc1ccc2oc(-c3ccc(C)c(NC(=O)c4ccc(-c5ccccc5[N+](=O)[O-])o4)c3)nc2c1`: the activation is inactive: 3.67%.

Consider `Cc1cccc(-c2nc3c(cnn3-c3ccccc3)c(=O)n2-c2ccc(Br)cc2)c1`, for which the activation was inactive: -29.1%.

Regarding `Cc1ccc(C(=O)O)cc1NC1(c2ccccc2)C(=O)c2ccccc2C1=O`, the activation was inactive: -14.9%.

As for `CC(C)(C)C1CCc2nc(NC(=O)c3ccc([N+](=O)[O-])cc3)sc2C1` (stereo not given), the activation was inactive: 11.4%.

Consider `CC1Cn2c(C(=O)NCc3cccc(Br)c3)cc3cccc(c32)S1` (stereo not given), for which the activation was inactive: -26.4%.

Consider `Cc1c(Cl)cccc1NC(=O)CSc1nc2ncccc2o1`, for which the activation was inactive: -7.52%.

`CC(=O)OCC1=C(C(=O)O)N2C(=O)[C@@H](NC(=O)Cc3cccs3)[C@H]2SC1`: the activation was inactive: 6.51% and inactive: 7.02%.

Regarding `COc1ccccc1CNC(=O)C1CCCN(c2nnc(C)c3c(C)n(-c4ccccc4)nc23)C1` (stereo not given), the activation is inactive: -2.17%.

With `CCc1ccccc1NC(=O)c1sc2nc(C)cc(COC)c2c1N`, the activation is inactive: -33.8%.

As for `Cc1ccc2[nH]c(CSc3nnc(NC(=O)c4ccccc4F)s3)cc(=O)c2c1`, the activation was inactive: 31.8%.

For the compound `O=C(CCSCc1cccc(Cl)c1)NCc1ccc(F)cc1Cl`, the activation was inactive: 23%.

For the compound `COc1ccc(-c2nc3ccc(C4=NNC(=O)CC4C)cc3[nH]2)cc1` (stereo not given), the activation was inactive: 23.6%.

Regarding `Cc1nn(CCC(=O)NCc2ccc(Cl)cc2)c(=O)c2nn(-c3ccccc3)c(C)c12`, the activation was inactive: 0.367%.

For the compound `COc1ccc(CCCc2nnc(SCC(=O)Nc3cccc(C)c3)o2)cc1`, the activation was inactive: 41.4%.

For `COc1ccc(-c2onc(C)c2C)cc1S(=O)(=O)NCc1ccc(C)o1`, the activation is inactive: -1.84%.

On to `COCC(C)NC(=O)c1cc2c(=O)n3cccc(C)c3nc2s1` (stereo not given), for which the activation was inactive: -8.55%.

For the compound `CCOC(=O)c1ccc(-c2ccc(/C=C(\C#N)c3nc4ccc(C)cc4[nH]3)o2)cc1`, the activation was inactive: -23.8%.

For `CCOc1cccc(CC(=O)NCc2ccc3c(c2)CCN3C(C)=O)c1OCC`, the activation is inactive: -19.9%.

Take `CCC(C)NC(=O)CCc1c(C)nc2c(c(C)nn2-c2ccc(C)cc2)c1C` (stereo not given): the activation is inactive: -18.1%.

On to `Cc1ccc2[nH]cc(C(c3ccccc3)c3ccc(C)s3)c2c1` (stereo not given), for which the activation is inactive: -5.88%.

As for `Cc1c(Cl)cccc1NC(=O)CC(c1ccc(F)cc1)N1Cc2ccccc2C1=O` (stereo not given), the activation was inactive: -21.7%.

`CCN(c1ccc(Cl)cc1)S(=O)(=O)c1nnc(NC(=O)c2ccccc2C)s1`: the activation was inactive: -2.28%.

With `O=C(NCCCc1nc2ccccc2n1Cc1ccccc1Cl)c1ccco1`, the activation is inactive: -8.74%.

With `CC(CNC(=O)C1CCN(C(=O)N2CCOc3ccc(Cl)cc32)CC1)c1ccccc1` (stereo not given), the activation is inactive: -3.13%.

`Cc1nc2n(c(=O)c1CCN1CCC(c3noc4cc(F)ccc34)CC1)CCCC2O` (stereo not given): the activation was inactive: -2.91%.

For the compound `O=[N+]([O-])c1cc(-c2nc(-c3ccco3)no2)ccc1NCc1ccccc1`, the activation is inactive: -4.72%.

In the case of `COc1ccc(-n2nc(C(=O)N(C)c3cc(Cl)ccc3OC)c3c4ccccc4n(C)c3c2=O)cc1`, the activation is inactive: -4.92%.

As to `CCc1ccc(Sc2cc(C(=O)O)c3ccccc3n2)cc1`, the activation is inactive: -11.7%.

Consider `CCN(CC)CCNC(=O)COc1ccc(OC)cc1`, for which the activation was inactive: -3.78%.

Regarding `N#CC1=C2SCN(C3CCCCC3)CN2C(=O)CC1c1c(F)cccc1Cl` (stereo not given), the activation was inactive: 9.55%.

As to `COc1ccc(S(=O)(=O)c2nnn(-c3ccccc3F)c2C)cc1`, the activation is inactive: 12.3%.

On to `Cc1nn(CCCC(=O)NCc2ccc(OC(C)C)cc2)c(=O)c2c1sc1ccccc12`, for which the activation was inactive: -16.7%.

Regarding `Cc1ccc(Cc2nc3ccccc3nc2SCC(=O)N2CCN(c3ccccc3)CC2)cc1`, the activation is inactive: -17.2%.

As to `CCOc1ccccc1NC(=O)C1=C(C)Nc2ncnn2C1c1ccc(NC(C)=O)cc1` (stereo not given), the activation was inactive: 5.4%.

Regarding `Cc1ccc(NC(=O)CC2Nc3cc(C)c(C)cc3NC2=O)c(C)c1` (stereo not given), the activation is inactive: -17.6%.

Turning to `Cc1cccc(N2CCN(c3ccc(C(=O)O)cc3NC(=O)c3cccc(Cl)c3)CC2C)c1` (stereo not given), the activation is inactive: 5.49%.

In the case of `Cc1cccc(C)c1NC(=O)Cn1c(=O)n(CCCS(=O)(=O)C2CCCCC2)c(=O)c2ccccc21`, the activation was inactive: -20.6%.

Turning to `CCc1ccc(-c2nc(SCC(=O)NCC3CCCO3)c(-c3ccc(C)cc3)[nH]2)cc1` (stereo not given), the activation is inactive: -17.2%.

Turning to `CCCN(C(=O)Cn1ncc2c1-c1ccccc1OC2)c1cccc(C)c1`, the activation was inactive: 7.16%.

Regarding `CCOCCc1nn2c(=O)cc(COC(=O)Cc3ccccc3)nc2s1`, the activation was inactive: -8.04%.

For `COc1ccc(CCNC(=O)c2nc(SCc3ccccc3F)ncc2Cl)cc1OC`, the activation is inactive: -32.2%.

As for `CCOC(=O)C1CCN(c2c(C(=O)c3ccc(OC)cc3)cnc3ccccc23)CC1`, the activation is inactive: 7.23%.

On to `O=C(CSc1nccn1C1CCCC1)Nc1cccc(F)c1`, for which the activation was inactive: -5.37%.

For the compound `CSCC[C@@H](C(=O)Nc1cccc(F)c1)N1Cc2ccccc2C1=O`, the activation is inactive: -24%.

For the compound `CN(c1ccccc1)S(=O)(=O)c1nnc(NC(=O)COc2ccccc2)s1`, the activation was inactive: -6.87%.

With `CCOC(=O)c1cc2c(=O)n3ccccc3nc2n(Cc2ccco2)c1=NC(=O)c1ccc(C)c(C)c1`, the activation was inactive: -20.3%.

Consider `O=C(Nc1cc2c(cc1C(=O)c1cccc(Br)c1)OCCO2)c1ccccc1F`, for which the activation is inactive: 3.42%.

As to `CN(C(=O)Cn1cnc2onc(-c3ccc(F)cc3)c2c1=O)c1ccccc1Cl`, the activation is inactive: 29.7%.

As for `Cc1cc(C)cc(-n2c(C)cc(C(=O)C(=O)Nc3nnc(C)s3)c2C)c1`, the activation was inactive: -0.179%.

For the compound `Cc1ccc(-n2c(=O)c3ccc(C(=O)NCc4ccco4)cc3n(CC(=O)Nc3ccccc3C(F)(F)F)c2=O)cc1`, the activation is inactive: 1.7%.

As to `CCOc1ccccc1CNC(=O)c1ccc(NC(=O)N2CC(C)Sc3ccccc32)cc1` (stereo not given), the activation was inactive: -19.4%.

Consider `CCCN(CCC)C(=O)C(CCC(=O)OCCCN1CCN(CCOC(=O)Cc2c(C)n(C(=O)c3ccc(Cl)cc3)c3ccc(OC)cc23)CC1)NC(=O)c1ccccc1` (stereo not given), for which the activation was inactive: -29.8%.

Take `CCCN(CCC)C(=O)Cn1c(SCc2cccc(C(F)(F)F)c2)nc2cccnc21`: the activation was inactive: -24.7%.

In the case of `CCOc1ccc(C(=O)NCc2nc3cccnc3n2Cc2cccc(OC)c2)cc1`, the activation is inactive: -14.2%.

Consider `O=C(NC1(C(F)(F)F)C(=O)Nc2c1c(=O)[nH]c(=O)n2-c1ccccc1)c1ccccc1` (stereo not given), for which the activation was inactive: 10.4%.

In the case of `C=CCCCCCCCCC(=O)O`, the activation was inactive: 19.5%.

Consider `N#Cc1ccccc1NC(=O)C(=O)NCCc1csc2nc(-c3cccc(F)c3)nn12`, for which the activation was inactive: -12.4%.
